Substitutions are numbered along the chain they refer to. These are yes or no findings as the source states them, for the method shown. For part of these data: Binding seen in cells or lysates may run through a third protein. Some results given as binding are weak or reduced against the parent protein; the word gives no strength. For part of these data: Where a sequence is shown, tags or fusion partners need not be part of it.
Tests used:
[1] = target: T1, CIB2-V5 (calcium and integrin-binding protein 2, V5 tagged, wild type) (human), O75838; assay: FRET or BRET; acceptor photobleaching FRET in fixed, co-transfected CHO-K1 cells; GFP/EGFP fusion as donor, V5 fusion stained with anti-V5 and goat anti-mouse Alexa Fluor 555 as acceptor; details: remark: other sources report otherwise
T1 chain: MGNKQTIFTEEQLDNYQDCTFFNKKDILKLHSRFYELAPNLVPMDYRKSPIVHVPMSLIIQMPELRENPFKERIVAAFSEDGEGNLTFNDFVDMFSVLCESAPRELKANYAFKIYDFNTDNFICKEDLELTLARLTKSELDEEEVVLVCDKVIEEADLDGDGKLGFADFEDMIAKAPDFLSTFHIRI

[2] = target: T2, mouse Tmc1 (aa 1-193), Gal4 DNA binding domain fusion (bait, plasmid pB66) (mouse) (UniProt Q8R4P5); assay: two-hybrid; yeast two-hybrid; bait Gal4 DNA binding domain-Tmc1 (aa 1-193), prey Gal4 activation domain-Cib2 full length; diploids by mating; HIS3 reporter, growth without tryptophan, leucine and histidine
T2 sequence: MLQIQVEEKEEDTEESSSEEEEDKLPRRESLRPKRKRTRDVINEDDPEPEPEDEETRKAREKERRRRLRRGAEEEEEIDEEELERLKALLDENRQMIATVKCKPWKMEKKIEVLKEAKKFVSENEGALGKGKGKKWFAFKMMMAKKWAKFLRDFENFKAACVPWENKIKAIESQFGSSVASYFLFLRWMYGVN

[3] = target: T3, TMC1N (1-193), N-terminus of TMC1 (co-immunoprecipitation construct) (not stated (human or mouse cDNA cloned)) (UniProt Q8R4P5); assay: co-IP; HEK 293 cells co-transfected; sonicated in RIPA buffer; lysates incubated overnight at 4 °C with GFP antibody on Protein A-Sepharose CL-4B beads; western blot
T3 sequence: T2 sequence

B1: CIB2-V5 (calcium and integrin-binding protein 2, V5 tagged, wild type), O75838 1-187 (protein)
chain: T1 chain
For B1, which binding [1] is on record?
Its binding is “binds”.

B2: mouse full length Cib2, Gal4 activation domain fusion (prey, plasmid pP6) (protein, UniProt Q9Z309 1-187)
chain: T1 chain with S32A, A76E, L130M, D141E, E143D
For B2, which binding [2] is on record?
The binding was “binds”.

B3: full-length CIB2 (co-immunoprecipitation construct) (protein, UniProt Q9Z309 1-187)
chain: T1 chain with S32A, A76E, L130M, D141E, E143D
Which binding [3] does the source give for B3 here?
Its binding is “binds”.

— article PMC5491523
